This note sets out measurements from US8071318B2, “High throughput method and system for screening candidate compounds for activity against target ion channels” (Vertex Pharmaceuticals (San Diego) LLC, priority 2000, dated 2011).

The subject of this assay is NaV2 sodium channel. The note with it: CHO NaV2; 20 Hz stimulus; response at 1 second vs 3 seconds.

Structures are written as SMILES.

Consider `CCCCN1CCCCC1C(=O)Nc1c(C)cccc1C` (stereo not drawn) [Bupivacaine], for which the “dependence of channel block on the time window (use-dependence, shift of dose-response curves)” value was “smaller amount of shift in the dose-response curves”. As to `CCN(CC)CC(=O)Nc1c(C)cccc1C` [Lidocaine], the “dependence of channel block on the time window (use-dependence, shift of dose-response curves)” value is “smaller amount of shift in the dose-response curves”. The result for `CCCCNc1ccc(C(=O)OCCN(C)C)cc1` [Tetracaine, tetracaine] reads “an order of magnitude stronger at 3 seconds than at 1 second”.
